Test results from publication PMC12136788.
The other results are listed elsewhere or left out.

T1: UNK ZnF1-3 (human, UniProt Q9C0B0 31-174)
T1 sequence: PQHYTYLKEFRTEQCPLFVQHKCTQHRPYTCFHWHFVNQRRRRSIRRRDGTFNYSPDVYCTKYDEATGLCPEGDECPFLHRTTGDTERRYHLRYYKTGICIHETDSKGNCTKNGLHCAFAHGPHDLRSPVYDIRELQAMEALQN

B1: chr13:97419678:97419679:-_ENSMUSG00000021670_ENSMUST00000022176|mus_hu|motif|central (ssRNA)
RNA: GGGAGUUCUACAGUCCGACGAUCUUUUAUUACAACAUAUACAGAUUUGAUACAGUUUACAAAAAAAACUAGAUUUUUCAACGGAAUAAAAAUGUCUUUUAAGCAAUUAAAGUUGGCUUAGAGACAUGGUAUUUUUCUUUCAAACAACAGAGGAUUGAGCAUCA
B2: chr7:32526834:32526835:-_ENSG00000106355_ENST00000409292|hu_hu|motif|central (ssRNA)
RNA: GGGAGUUCUACAGUCCGACGAUCUAGAAAGUGGGAAAAAAAAUUCCAUUUUCUUGUCAUUAUAAGCCAAAACAAAAUCGGGUGUAAGUCAAGGAAACUCAUUCACACUUCAGGUCCUUCUCCUCCAGGAACCAGCAUUGUUAUCAACAGAGGAUUGAGCAUCA
B3: chr12:16043544:16043545:+_ENSG00000023734_ENST00000419869|hu_mus|motif|central (ssRNA)
RNA: GGGAGUUCUACAGUCCGACGAUCUUUGUUCAAGUCAUAUAUGCGCAGCAGUUUAUCCUGUCCCCCAGUUAGCAGGUAAUUGCGGUCCUGUGUGAAAUCCACAGUCUUGACAAUGUGCUUAUGAGCCAGGGUCAUCAAUUCAUCCAACAGAGGAUUGAGCAUCA
B4: chr14:66209396:66209397:-_ENSMUSG00000022031_ENSMUST00000022609|mus_hu|motif|central (ssRNA)
RNA: GGGAGUUCUACAGUCCGACGAUCAGAUCGAUGUCUUUCCCCUGCUCGUGGGCUUCAAUCAGUUGUUUAAUAACAUCUCCGGUAGUCAGCAUCAUCAGCUCAGCAGGGCUGAGAUCUCCAGACUAUGGAGGAUUCACCACCAGACAACAGAGGAUUGAGCAUCA
B5: chr1:66480114:66480115:+_ENSMUSG00000015222_ENSMUST00000024639|mus_mus|motif|central (ssRNA)
RNA: GGGAGUUCUACAGUCCGACGAUCUGGCCUGUGACGGAUGUUCUUUAGAGAGCCACAUUUGGAUGUCACAUGGCUUAAGUCGGUCUUCUUAGUAACAAUUUGUACCUGACCCCCCUUAGGCUGGUAUUUGAUGUUGUCAGUUGACAACAGAGGAUUGAGCAUCA
B6: chr1:66463027:66463028:+_ENSMUSG00000015222_ENSMUST00000114013|mus_hu|motif|central (ssRNA)
RNA: GGGAGUUCUACAGUCCGACGAUCUUUUCUUUCAGGAGUGGAAAUUCUGCCUCUCCCGGUUUUAAAAGGCUUUUCUUUUCGGUGUUUCUCAAGAGAUGAUCUCCGAGCUUCCUUUUCAGCUUUCUCCUCUUUAGGAAUAGUUUCCAACAGAGGAUUGAGCAUCA

The binders below were run against T1, UNK ZnF1-3 (assay: nsRBNS (natural sequence RNA bind-n-seq); RBNS binding buffer (assumed for nsRBNS): 25 mM Tris pH 7.5, 150 mM KCl, 3 mM MgCl2, 0.01% Triton X-100, 500 ug/ml BSA, 20 U/ml SUPERase-In, 4 C; UNK is unkempt and MSI1 is Musashi-1; names of the RNAs are library labels; protein concentration not given here; high values mean tight binding).

Binder	binding signal [enrichment R]
B1	0.839
B2	1.35
B3	1.01
B4	0.753
B5	0.53
B6	0.426
